# Measured values from the supplement of paper PMC8728848.
# This is one part of the list.
# B1: LecB PA7 (Pseudomonas aeruginosa) (protein)
# chain: MATQGVFTLPANTRFGVTAFANSSATQTVKVLVNNETAATFTGQSTNNAVIGSQVLNSGGGGKVQIQVSVNGRSSDLVSAQVILANELNVALVGSEDSTDNDYNDAVVVINWPLG
# How the values were obtained:
# Experiment in all cases: glycan array binding signal (z-score within array); higher = stronger binding
# Conditions in all cases: glycan notation: IUPAC condensed, linker removed
# [1] = target: Neu5Ac(a2-6)Gal(b1-4)GlcNAc(b1-2)[Neu5Ac(a2-6)Gal(b1-4)GlcNAc(b1-4)]Man(a1-3)[GlcNAc(b1-4)][Neu5Ac(a2-6)Gal(b1-4)GlcNAc(b1-2)[Neu5Ac(a2-6)Gal(b1-4)GlcNAc(b1-6)]Man(a1-6)]Man(b1-4)GlcNAc(b1-4)GlcNAc
# Summary of the method: (§1)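 Arrays were curated from the Consortium for Functional Glycomics database, 3228 in total, and kept only where the protein sequence was available. Binding is expressed as a within-array Z-score. This score was averaged across arrays of the same protein sequence at different concentrations or buffers and across linkers, and negative values can be read as non-binding.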
# [2] = target: Neu5Ac(a2-6)Gal(b1-4)GlcNAc(b1-2)[Neu5Ac(a2-6)Gal(b1-4)GlcNAc(b1-4)]Man(a1-3)[GlcNAc(b1-4)][Neu5Ac(a2-6)Gal(b1-4)GlcNAc(b1-4)Man(a1-6)]Man(b1-4)GlcNAc(b1-4)GlcNAc
# Summary of the method: as §1
# [3] = target: Neu5Ac(a2-6)Gal(b1-4)GlcNAc(b1-2)[Neu5Ac(a2-6)Gal(b1-4)GlcNAc(b1-6)]Man(a1-6)[Neu5Ac(a2-6)Gal(b1-4)GlcNAc(b1-2)Man(a1-3)][GlcNAc(b1-4)]Man(b1-4)GlcNAc(b1-4)GlcNAc
# Summary of the method: as §1
# [4] = target: Neu5Ac(a2-6)Gal(b1-4)GlcNAc(b1-3)Gal(b1-3)GlcNAc
# Summary of the method: as §1
# [5] = target: Neu5Ac(a2-6)Gal(b1-4)GlcNAc(b1-3)Gal(b1-4)GlcNAc
# Summary of the method: as §1
# [6] = target: Neu5Ac(a2-6)Gal(b1-4)GlcNAc(b1-3)Gal(b1-4)GlcNAc(b1-2)Man(a1-3)[Neu5Ac(a2-6)Gal(b1-4)GlcNAc(b1-3)Gal(b1-4)GlcNAc(b1-2)Man(a1-6)]GalNAc
# Summary of the method: as §1
# [7] = target: Neu5Ac(a2-6)Gal(b1-4)GlcNAc(b1-3)Gal(b1-4)GlcNAc(b1-3)Gal(b1-4)GlcNAc
# Summary of the method: as §1
# [8] = target: Neu5Ac(a2-6)Gal(b1-4)GlcNAc(b1-3)Gal(b1-4)GlcNAc(b1-3)Gal(b1-4)GlcNAc(b1-2)Man(a1-3)[Neu5Ac(a2-6)Gal(b1-4)GlcNAc(b1-3)Gal(b1-4)GlcNAc(b1-3)Gal(b1-4)GlcNAc(b1-2)Man(a1-6)]GalNAc
# Summary of the method: as §1
# [9] = target: Neu5Ac(a2-6)Gal(b1-4)GlcNAc(b1-3)Gal(b1-4)GlcNAc(b1-3)GalNAc
# Summary of the method: as §1
# [10] = target: Neu5Ac(a2-6)Gal(b1-4)GlcNAc(b1-3)Gal(b1-4)GlcNAc(b1-3)[Neu5Ac(a2-6)Gal(b1-4)GlcNAc(b1-3)Gal(b1-4)GlcNAc(b1-6)]GalNAc
# Summary of the method: as §1
# [11] = target: Neu5Ac(a2-6)Gal(b1-4)GlcNAc(b1-3)Gal(b1-4)GlcNAc(b1-6)[Gal(b1-3)]GalNAc
# Summary of the method: as §1
# [12] = target: Neu5Ac(a2-6)Gal(b1-4)GlcNAc(b1-3)Gal(b1-4)[Fuc(a1-3)]GlcNAc(b1-3)Gal(b1-4)[Fuc(a1-3)]GlcNAc
# Summary of the method: as §1
# [13] = target: Neu5Ac(a2-6)Gal(b1-4)GlcNAc(b1-3)GalNAc
# Summary of the method: as §1
# [14] = target: Neu5Ac(a2-6)Gal(b1-4)GlcNAc(b1-3)[Neu5Ac(a2-6)Gal(b1-4)GlcNAc(b1-6)]GalNAc
# Summary of the method: as §1
# [15] = target: Neu5Ac(a2-6)Gal(b1-4)GlcNAc(b1-6)GalNAc
# Summary of the method: as §1
# [16] = target: Neu5Ac(a2-6)Gal(b1-4)GlcNAc(b1-6)[Gal(b1-3)GlcNAc(b1-3)]Gal(b1-4)Glc
# Summary of the method: as §1
# [17] = target: Neu5Ac(a2-6)Gal(b1-4)GlcNAc(b1-6)[Gal(b1-3)]GalNAc
# Summary of the method: as §1
# [18] = target: Neu5Ac(a2-6)Gal(b1-4)GlcNAc6S
# Summary of the method: as §1
# [19] = target: Neu5Ac(a2-6)GalNAc
# Summary of the method: as §1
# [20] = target: Neu5Ac(a2-6)GalNAc(b1-4)GlcNAc
# Summary of the method: as §1
# [21] = target: Neu5Ac(a2-6)GalNAc(b1-4)GlcNAc6S
# Summary of the method: as §1
# [22] = target: Neu5Ac(a2-6)GlcNAc(b1-4)GlcNAc
# Summary of the method: as §1
# [23] = target: Neu5Ac(a2-6)GlcNAc(b1-4)GlcNAc(b1-4)GlcNAc
# Summary of the method: as §1
binder,measurement,setting,value
B1,glycan array binding signal (z-score),[1],-0.507
same,glycan array binding signal (z-score),[2],-0.508
same,glycan array binding signal (z-score),[3],-0.484
same,glycan array binding signal (z-score),[4],-0.507
same,glycan array binding signal (z-score),[5],-0.504
same,glycan array binding signal (z-score),[6],-0.435
same,glycan array binding signal (z-score),[7],-0.512
same,glycan array binding signal (z-score),[8],-0.466
same,glycan array binding signal (z-score),[9],-0.501
same,glycan array binding signal (z-score),[10],-0.497
same,glycan array binding signal (z-score),[11],-0.51
same,glycan array binding signal (z-score),[12],2.19
same,glycan array binding signal (z-score),[13],-0.471
same,glycan array binding signal (z-score),[14],-0.506
same,glycan array binding signal (z-score),[15],-0.476
same,glycan array binding signal (z-score),[16],-0.396
same,glycan array binding signal (z-score),[17],-0.504
same,glycan array binding signal (z-score),[18],-0.503
same,glycan array binding signal (z-score),[19],-0.507
same,glycan array binding signal (z-score),[20],-0.511
same,glycan array binding signal (z-score),[21],-0.408
same,glycan array binding signal (z-score),[22],-0.49
same,glycan array binding signal (z-score),[23],-0.371
